# About 6,900 (2%) of roughly 340,000 compounds were called active. Rule as the data show it: active = inhibition above about 30%; inactive = below that, where a call was filed. The entries are a selection whose mix differs from that of the whole data set. Where no call is shown, the source filed none. Where a structure was tested more than once in an assay, its records may differ in their call.
# Target: D(2) dopamine receptor (Homo sapiens) (UniProt P14416)
# Assay: HTS Assay for Allosteric Antagonists of the Human D2 Dopamine Receptor: Primary Screen for Antagonists; also: 0% is about no effect
# Conditions: HEK293 TREx D2 cells, calcium flux, dopamine EC80; at 10 µM; stronger effect = higher value
# Summary of the method: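 Tetracycline-induced HEK293 TREx cells expressing D2 receptor forced-coupled to calcium signalling, loaded with no-wash calcium dye. Compounds added and calcium flux read 180 s, then dopamine added at EC80 and read a further 180 s.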
# Sequence of UniProt P14416 (P14416 whole entry, looked up): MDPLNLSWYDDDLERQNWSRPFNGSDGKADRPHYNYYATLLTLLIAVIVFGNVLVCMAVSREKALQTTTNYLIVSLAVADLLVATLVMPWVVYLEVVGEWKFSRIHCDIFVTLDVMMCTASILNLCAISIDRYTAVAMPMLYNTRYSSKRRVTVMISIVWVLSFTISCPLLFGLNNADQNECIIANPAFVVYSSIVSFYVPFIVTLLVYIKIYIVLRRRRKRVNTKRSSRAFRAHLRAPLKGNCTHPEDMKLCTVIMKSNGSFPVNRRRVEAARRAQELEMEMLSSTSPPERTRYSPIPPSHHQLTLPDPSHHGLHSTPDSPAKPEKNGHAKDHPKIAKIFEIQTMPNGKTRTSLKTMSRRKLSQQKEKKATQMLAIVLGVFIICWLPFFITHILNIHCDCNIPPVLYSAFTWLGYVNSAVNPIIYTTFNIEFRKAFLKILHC
row,Structure (SMILES),inhibition
1,CCc1ccc(S(=O)(=O)c2nnn3c2nc(NCCNC(C)=O)c2cc(Cl)ccc23)cc1,-2.65%
2,CC(C)(C)NC(=O)c1oc2ccccc2c1NC(=O)c1ccc(F)cc1,-8.44%
3,COc1ccc(CCN2C(=O)CN(C3CCC(C)CC3)C(=O)C2c2ccc(OC(C)C)c(OC)c2)cc1OC (configuration not stated),1.15%
4,O=C1CCCN1Cc1ccccc1,active: 30.4%
5,Cc1ccccc1C(=O)c1cccn1CC(=O)NCc1cccc(Cl)c1,-2.49%
6,O=C(Cn1c(=O)n(-c2ccc(Cl)cc2)c(=O)c2c3c(sc21)CCC3)c1ccccc1,1.52%
7,CCOC(=O)C1(CC2CC2)CCN(Cc2ccc(C(=O)OC)cc2)CC1,active: 71.8%
8,CCOC(=O)c1c(NC(=O)CSc2cn(CCNC(=O)c3ccccc3F)c3ccccc23)sc2c1CCCC2,-11.8%
9,COCCCNC(=O)c1ccc2c(c1)NC(=O)C(C(C)C)N2 (configuration not stated),0.344%
10,CCOC(=O)c1ccc(NC(=O)c2nn(C)c3c2COc2ccccc2-3)cc1,24.1%
11,CC(C)c1ccc(OCc2cc(=O)n3c(-c4ccccc4)csc3n2)cc1,20.6%
12,COc1cc(-c2cc(OC)c3c(C)oc(C)c3c(=O)c2)ccc1OC(=O)c1cccc(Cl)c1,-17.7%
13,COc1ccc(NC(=O)CCCN2C(=O)COc3ccc(C)cc32)cc1OC,5.06%
14,CCOc1ccc(CNC(=O)CCCn2c(=O)c3cccn3c3ccc(F)cc32)cc1,2.39%
15,CC(=O)N1CCc2c(sc3c2c(=O)n(Cc2ccccc2)c(=O)n3CC(=O)Nc2ccc(C)c(F)c2)C1,-12.9%
16,COc1ccc(CN2C(=O)C(NC(=O)c3ccccc3OC)(C(F)(F)F)N=C2c2ccccc2)cc1 (configuration not stated),-10.2%
17,COc1ccc(CCNC(=O)CCC(=O)c2cccs2)cc1OC,active: 43.9%
18,CCc1ccc(S(=O)(=O)c2nnn(-c3cccc(C)c3)c2N)cc1,12.3%
19,Cc1cc(C)n(CCOc2nonc2N)n1,active: 34.1%
20,CCc1ccc(NC(=O)CCn2cnc3ccccc3c2=O)cc1,22%
21,CCOC(=O)c1c(-c2ccccc2)oc2ccc(NS(=O)(=O)c3ccc(C(C)C)cc3)cc12,-5.87%
22,Cc1cccc(OCC(=O)Nc2ccc3nc(Nc4cccc(Cl)c4)cc(C)c3c2)c1,-20.6%
23,CCCCCn1c(=N)n(CC(O)COc2ccccc2OC)c2ccccc21 (configuration not stated),active: 32.4%
24,CCOc1ccccc1CNC(=O)CN1C(=O)CCc2cc(S(=O)(=O)N3CCCCC3)ccc21,-1.34%
25,COc1ccccc1NC(=O)c1c(NC(=O)c2ccccc2Cl)sc2c1CCC2,-15.8%
26,COCCNC(=O)CSc1nc(-c2ccc(C)cc2)nc2c1c(=O)n(C)c(=O)n2C,7.61%
27,COC(=O)C1=C(C)NC(=O)C1(NC(=O)c1ccccc1C)C(F)(F)F (configuration not stated),15.2%
